Results taken from paper PMC6919601, “Identification of Plasmodium dipeptidyl aminopeptidase allosteric inhibitors by high throughput screening” (PLoS ONE, 2019).
About 230 (0.21%) of roughly 110,000 compounds showed an effect of 50% or more. Some of the results follow.

target: DPAP1 (Plasmodium falciparum, UniProt Q8IIJ9); assay: primary screen, percent inhibition; read by cleavage of a fluorogenic dipeptide substrate; higher = more effect of the substance; parameters: species or system P. falciparum D10 trophozoite lysates; single well
Sequence (Q8IIJ9 whole entry, looked up): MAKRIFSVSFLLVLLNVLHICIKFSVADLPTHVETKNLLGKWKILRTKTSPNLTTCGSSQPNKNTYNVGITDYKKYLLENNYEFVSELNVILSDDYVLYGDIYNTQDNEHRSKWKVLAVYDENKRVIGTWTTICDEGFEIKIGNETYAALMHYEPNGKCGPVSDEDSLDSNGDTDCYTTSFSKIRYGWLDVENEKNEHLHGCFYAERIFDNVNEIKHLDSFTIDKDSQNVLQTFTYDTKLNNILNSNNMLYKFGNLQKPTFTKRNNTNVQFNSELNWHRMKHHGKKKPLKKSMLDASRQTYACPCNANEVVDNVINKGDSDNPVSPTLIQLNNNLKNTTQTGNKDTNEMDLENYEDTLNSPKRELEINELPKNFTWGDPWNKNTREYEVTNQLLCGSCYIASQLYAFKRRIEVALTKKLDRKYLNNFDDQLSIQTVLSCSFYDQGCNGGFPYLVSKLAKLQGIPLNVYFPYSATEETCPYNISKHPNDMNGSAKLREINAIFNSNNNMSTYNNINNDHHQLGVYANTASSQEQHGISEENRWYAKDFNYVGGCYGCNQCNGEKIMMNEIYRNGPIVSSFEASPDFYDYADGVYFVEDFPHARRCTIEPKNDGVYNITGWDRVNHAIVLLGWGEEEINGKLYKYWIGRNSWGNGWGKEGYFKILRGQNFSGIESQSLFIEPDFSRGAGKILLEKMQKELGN
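Note: 30 min substrate incubation versus DMSO and 10 µM JCP410 controls.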

Question: For `Cc1ccc(-n2nc3c(N4CCC(C(=O)NCCCOC(C)C)CC4)nnc(C)c3c2C)cc1`, which “% Inhibition @ 10 uM” value is on record?
Answer: 0.186%

Question: Which “% Inhibition @ 10 uM” value does the source give for `Brc1ccc(OCc2nc(-c3ccc(-n4cccc4)cc3)no2)cc1` here?
Answer: -5.11%

Question: How did the “% Inhibition @ 10 uM” value turn out when `CC(Cc1ccccc1)[N+]1=NO/C(=N/C(=N/Cc2ccccc2)N(C)C)C1` (stereo not drawn) was run?
Answer: -0.85%

Question: Which “% Inhibition @ 10 uM” value does the source give for `CCc1cc2c(=O)n(-c3ccccc3)c(SCC(N)=O)nc2s1` here?
Answer: -2.8%

Question: Which “% Inhibition @ 10 uM” value does the source give for `O=C1C2CCCCN2C(=O)N1CCCCN1CCN(c2cccc(Br)c2)CC1` (stereo not drawn) here?
Answer: 0.408%

Question: With `COc1ccc(-n2nnc(-c3nc(-c4ccccc4)no3)c2N)cc1Cl` as the molecule, how does the “% Inhibition @ 10 uM” value read?
Answer: 2.71%

Question: For `Cc1nc(-c2ccc([N+](=O)[O-])cc2)cs1`, which “% Inhibition @ 10 uM” value is on record?
Answer: 3%

Question: With `O=C1C2C3C=CC(C2C(=O)N1c1ccc(CCO)cc1)C1C(=O)N(c2ccc(CCO)cc2)C(=O)C31` (stereo not drawn) as the molecule, how does the “% Inhibition @ 10 uM” value read?
Answer: -0.687%

Question: For `CCN(CC)C(=O)C1CCCN(C2CC(=O)N(c3ccccc3)C2=O)C1` (stereo not drawn), which “% Inhibition @ 10 uM” value is on record?
Answer: 3.33%

Question: `Cc1ccc(C(=O)N2CC3(C(C)C)CN(C(=O)c4ccc(C)cc4)CC(C(C)C)(C2)C3=O)cc1` was tested. Which “% Inhibition @ 10 uM” value did it give?
Answer: 3.94%

Question: Which “% Inhibition @ 10 uM” value does the source give for `Cc1ccc(Cn2c(C(=O)O)c(CNC3CCCC(C)C3C)c3ccc(C)cc32)cc1` (stereo not drawn) here?
Answer: 9.74%

Question: Which “% Inhibition @ 10 uM” value does the source give for `COc1ccc(CNCc2cccc(Oc3ccccc3)c2)cc1` here?
Answer: 7.63%

Question: With `COc1ccccc1-c1cc(/N=C(/NCc2ccccc2)SC)[nH]n1` as the molecule, how does the “% Inhibition @ 10 uM” value read?
Answer: 1.12%

Question: Which “% Inhibition @ 10 uM” value does the source give for `O=C(C(Cc1ccccc1)N1C(=O)c2ccccc2C1=O)N1CCN(CCO)CC1` (stereo not drawn) here?
Answer: 0.408%

Question: How did the “% Inhibition @ 10 uM” value turn out when `CC1CCC(C(C)C)C(OCC(O)CN2CCOCC2)C1` (stereo not drawn) was run?
Answer: -7.32%

Question: With `Cc1nccn1Cc1cccc2ccccc12` as the molecule, how does the “% Inhibition @ 10 uM” value read?
Answer: -1.99%

Question: With `CCC(C)NC(=O)c1ccc(CS(=O)(=O)c2ccc(OC)cc2)o1` (stereo not drawn) as the molecule, how does the “% Inhibition @ 10 uM” value read?
Answer: 2.14%

Question: For `COc1ccc(-c2ccc3c(N)c(C(=O)Nc4nc5ccccc5s4)sc3n2)cc1OC`, which “% Inhibition @ 10 uM” value is on record?
Answer: 4.97%

Question: For `CCN1CCC(N[C@H]2CCCCNC2=O)CC1`, which “% Inhibition @ 10 uM” value is on record?
Answer: -0.0953%

Question: `COc1ccc(CC(=O)Nc2ccc(C)c(F)c2)cc1` was tested. Which “% Inhibition @ 10 uM” value did it give?
Answer: -3.95%

Question: `CC(C)Sc1nc(N2CCOCC2)c2c(c1C#N)CC(C)(C)OC2` was tested. Which “% Inhibition @ 10 uM” value did it give?
Answer: 2.18%

Question: For `CN(C)c1nc2c(c(=O)n(C)c(=O)n2C)n1CC(O)COc1ccccc1` (stereo not drawn), which “% Inhibition @ 10 uM” value is on record?
Answer: -4.78%

Question: How did the “% Inhibition @ 10 uM” value turn out when `CCc1ccc(OCC(=O)NCCc2ccccc2)cc1` was run?
Answer: -0.274%

Question: Which “% Inhibition @ 10 uM” value does the source give for `O=S(=O)(c1ccccc1F)N1CCN(C(c2ccccc2)c2ccccc2)CC1` here?
Answer: -4.71%

Question: With `O=C1Nc2ccccc2C(=O)C1(F)Cc1ccccc1` (stereo not drawn) as the molecule, how does the “% Inhibition @ 10 uM” value read?
Answer: 6.29%

Question: Which “% Inhibition @ 10 uM” value does the source give for `CSc1ccc(C2CC(=O)N3CN(C)CSC3=C2C#N)cc1` (stereo not drawn) here?
Answer: 75%

Question: How did the “% Inhibition @ 10 uM” value turn out when `O=C(CN1C(=O)S/C(=C\c2ccccn2)C1=O)Nc1ccc(F)cc1` was run?
Answer: -1.22%
